# Some of the results follow.
# Experiments:
# Experiment in all cases: glycan array binding signal (z-score within array); higher = stronger binding
# Conditions in all cases: glycan notation: IUPAC condensed, linker removed
# [1] = biological target: Gal(b1-4)GlcNAc(b1-3)Gal(b1-4)GlcNAc(b1-3)Gal(b1-4)GlcNAc(b1-3)Gal(b1-4)GlcNAc(b1-2)Man(a1-3)[Gal(b1-4)GlcNAc(b1-3)Gal(b1-4)GlcNAc(b1-3)Gal(b1-4)GlcNAc(b1-3)Gal(b1-4)GlcNAc(b1-2)Man(a1-6)]Man(b1-4)GlcNAc(b1-4)[Fuc(a1-6)]GlcNAc
# Summary of the method: (§1)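 Negative Z-scores can be read as non-binding. The Z-score is calculated within each array and then averaged across arrays of one protein sequence at different concentrations or buffers and across linkers. Arrays, 3228 in all, were curated from the Consortium for Functional Glycomics database and kept only where the protein sequence was available.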
# [2] = biological target: Gal(b1-4)GlcNAc(b1-3)Gal(b1-4)GlcNAc(b1-3)Gal(b1-4)GlcNAc(b1-3)Gal(b1-4)GlcNAc(b1-2)[Gal(b1-4)GlcNAc(b1-3)Gal(b1-4)GlcNAc(b1-3)Gal(b1-4)GlcNAc(b1-3)Gal(b1-4)GlcNAc(b1-6)]Man(a1-6)[Gal(b1-4)GlcNAc(b1-3)Gal(b1-4)GlcNAc(b1-3)Gal(b1-4)GlcNAc(b1-3)Gal(b1-4)GlcNAc(b1-2)Man(a1-3)]Man(b1-4)GlcNAc(b1-4)[Fuc(a1-6)]GlcNAc
# Summary of the method: as §1
# [3] = biological target: Gal(b1-4)GlcNAc(b1-3)Gal(b1-4)GlcNAc(b1-3)Gal(b1-4)GlcNAc(b1-3)Gal(b1-4)GlcNAc(b1-3)Gal(b1-4)GlcNAc(b1-2)Man(a1-3)[Gal(b1-4)GlcNAc(b1-3)Gal(b1-4)GlcNAc(b1-3)Gal(b1-4)GlcNAc(b1-3)Gal(b1-4)GlcNAc(b1-3)Gal(b1-4)GlcNAc(b1-2)Man(a1-6)]Man(b1-4)GlcNAc(b1-4)GlcNAc
# Summary of the method: as §1
# [4] = biological target: Gal(b1-4)GlcNAc(b1-3)Gal(b1-4)GlcNAc(b1-3)Gal(b1-4)GlcNAc(b1-3)Gal(b1-4)GlcNAc(b1-3)Gal(b1-4)GlcNAc(b1-2)Man(a1-3)[Gal(b1-4)GlcNAc(b1-3)Gal(b1-4)GlcNAc(b1-3)Gal(b1-4)GlcNAc(b1-3)Gal(b1-4)GlcNAc(b1-3)Gal(b1-4)GlcNAc(b1-2)Man(a1-6)]Man(b1-4)GlcNAc(b1-4)[Fuc(a1-6)]GlcNAc
# Summary of the method: as §1
# [5] = biological target: Gal(b1-4)GlcNAc(b1-3)Gal(b1-4)GlcNAc(b1-3)Gal(b1-4)GlcNAc(b1-3)Gal(b1-4)GlcNAc(b1-3)Gal(b1-4)GlcNAc(b1-2)[Gal(b1-4)GlcNAc(b1-3)Gal(b1-4)GlcNAc(b1-3)Gal(b1-4)GlcNAc(b1-3)Gal(b1-4)GlcNAc(b1-3)Gal(b1-4)GlcNAc(b1-6)]Man(a1-6)[Gal(b1-4)GlcNAc(b1-3)Gal(b1-4)GlcNAc(b1-3)Gal(b1-4)GlcNAc(b1-3)Gal(b1-4)GlcNAc(b1-3)Gal(b1-4)GlcNAc(b1-2)Man(a1-3)]Man(b1-4)GlcNAc(b1-4)[Fuc(a1-6)]GlcNAc
# Summary of the method: as §1
# [6] = biological target: Gal(b1-4)GlcNAc(b1-3)Gal(b1-4)GlcNAc(b1-3)Gal(b1-4)GlcNAc(b1-3)Gal(b1-4)GlcNAc(b1-3)Gal(b1-4)GlcNAc(b1-3)Gal(b1-4)GlcNAc(b1-2)Man(a1-3)[Gal(b1-4)GlcNAc(b1-3)Gal(b1-4)GlcNAc(b1-3)Gal(b1-4)GlcNAc(b1-3)Gal(b1-4)GlcNAc(b1-3)Gal(b1-4)GlcNAc(b1-3)Gal(b1-4)GlcNAc(b1-2)Man(a1-6)]Man(b1-4)GlcNAc(b1-4)GlcNAc
# Summary of the method: as §1
# [7] = biological target: Gal(b1-4)GlcNAc(b1-3)Gal(b1-4)GlcNAc(b1-3)GalNAc
# Summary of the method: as §1
# [8] = biological target: Gal(b1-4)GlcNAc(b1-3)Gal(b1-4)GlcNAc(b1-3)[Gal(b1-4)GlcNAc(b1-3)Gal(b1-4)GlcNAc(b1-6)]GalNAc
# Summary of the method: as §1
# [9] = biological target: Gal(b1-4)GlcNAc(b1-3)Gal(b1-4)GlcNAc(b1-6)[Gal(b1-3)]GalNAc
# Summary of the method: as §1
# [10] = biological target: Gal(b1-4)GlcNAc(b1-3)Gal(b1-4)[Fuc(a1-3)]GlcNAc(b1-3)Gal(b1-4)[Fuc(a1-3)]GlcNAc
# Summary of the method: as §1
# [11] = biological target: Gal(b1-4)GlcNAc(b1-3)GalNAc
# Summary of the method: as §1
# [12] = biological target: Gal(b1-4)GlcNAc(b1-3)[Fuc(a1-3)GlcNAc(b1-6)]Gal(b1-4)Glc
# Summary of the method: as §1
# [13] = biological target: Gal(b1-4)GlcNAc(b1-3)[Gal(b1-4)GlcNAc(b1-6)]Gal(b1-4)GlcNAc
# Summary of the method: as §1
# [14] = biological target: Gal(b1-4)GlcNAc(b1-3)[GlcNAc(b1-6)]Gal(b1-4)GlcNAc
# Summary of the method: as §1
# [15] = biological target: Gal(b1-4)GlcNAc(b1-6)Gal(b1-4)GlcNAc
# Summary of the method: as §1
# [16] = biological target: Gal(b1-4)GlcNAc(b1-6)GalNAc
# Summary of the method: as §1
# [17] = biological target: Gal(b1-4)GlcNAc(b1-6)[Gal(b1-3)]GalNAc
# Summary of the method: as §1
# [18] = biological target: Gal(b1-4)GlcNAc(b1-6)[Gal(b1-4)GlcNAc(b1-3)]GalNAc
# Summary of the method: as §1
# [19] = biological target: Gal(b1-4)GlcNAc6P
# Summary of the method: as §1
# [20] = biological target: Gal(b1-6)Gal
# Summary of the method: as §1
# [21] = biological target: Gal3S(b1-3)GalNAc
# Summary of the method: as §1
# [22] = biological target: Gal3S(b1-3)GlcNAc
# Summary of the method: as §1
# [23] = biological target: Gal3S(b1-3)[Fuc(a1-4)]GlcNAc
# Summary of the method: as §1
binder,measurement,setting,value
PX14375F-bfa-539-21-539 (Bacteroides fragilis) (protein) EDFLQKDPPSSPSQSVFWQKKSDFESALAGTYSVMYSGVFSQIMPCLDGLTDNAIVQHSEGTYGWAKTIAQGDLTPNQGGFVTDIYGNCYKGIARVHILMEQLDQYTGSDISADEKKFMLAQCKALRGYFYSWLYQCYKEVPVVTQSLDLNTMYQPKATRAEVLNRVMTDYDEAISELPDKLYSDSQTSGRFTVSAVKALKARILLFDAYDSNGKAISSKMEEVLTLLQSIKGYSLAARVRDNFISEKQLASPEIMFSVRFLRPNLTHSMDLYYGAWAVLDPTRNMVDAFECTDGKPWGESPLTVRPDESILYGNDDALKKAERAKMFMNRDRRLYESVNHSMMANFVDDGFKDEEVQVNESNNKGPTGFSALKYVQPTDVTPGYSTVSDADIVVLRYAHVLLMIAEAENEAHGATTTALNAINEVRTRSGQPAIEAGISQDDLRERIRNEWRIETCFEGLRYFQLKRWKLMDKRVNGVEDPAYPGYIKVYKPAFEFFPIPQSEIDKAGGVLKQDPAYE,glycan array binding signal (z-score),[1],0.632
same,glycan array binding signal (z-score),[2],0.907
same,glycan array binding signal (z-score),[3],0.109
same,glycan array binding signal (z-score),[4],1.5
same,glycan array binding signal (z-score),[5],0.801
same,glycan array binding signal (z-score),[6],4.05
same,glycan array binding signal (z-score),[7],2.44
same,glycan array binding signal (z-score),[8],0.456
same,glycan array binding signal (z-score),[9],-0.295
same,glycan array binding signal (z-score),[10],-0.468
same,glycan array binding signal (z-score),[11],-0.34
same,glycan array binding signal (z-score),[12],-0.049
same,glycan array binding signal (z-score),[13],0.637
same,glycan array binding signal (z-score),[14],-0.433
same,glycan array binding signal (z-score),[15],-0.582
same,glycan array binding signal (z-score),[16],1.01
same,glycan array binding signal (z-score),[17],-0.141
same,glycan array binding signal (z-score),[18],-0.051
same,glycan array binding signal (z-score),[19],-0.705
same,glycan array binding signal (z-score),[20],-0.171
same,glycan array binding signal (z-score),[21],-0.253
same,glycan array binding signal (z-score),[22],-0.578
same,glycan array binding signal (z-score),[23],-0.342

# From the supplement of paper PMC8728848
